From the supplement of paper PMC3334620
Over roughly 33,000 sequences, “E-score (-0.5 to 0.5)” has its median near -0.01; the highest 2% begin near 0.26. This is one part of the list.

Each sequence was assayed against Ste12 (UniProt P13574) (assay: PBM E-score (8-mer binding enrichment) (E-score (-0.5 to 0.5)); higher = stronger / more preferred TF binding; most listed sequences are background and not binding sites). Conditions: protein concentration: 200 nM; construct: GST-DNA-binding domain.
Outline: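 Bound GST-tagged yeast transcription factors, applied at about 100-200 nM to double-stranded universal all-10-mer Agilent arrays, were detected with fluorescent anti-GST. Scans were normalised with masliner. A modified Wilcoxon-Mann-Whitney statistic, the E-score, was assigned to each ungapped eight-base word pooled with its reverse complement by the Universal PBM Analysis Suite.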

Sequence	PBM E-score
CCAGTACA	-0.0831
ATCTTGAC	-0.0287
AATTGGCA	0.0144
AGGGGTTC	-0.157
GAACGGTA	-0.17
AGGTGGAC	-0.114
GTTCCGCA	0.0689
CGTCTACC	0.00635
GCGGCTAC	-0.133
AACGTACG	-0.114
ACTGCCTG	-0.058
ACGTGAAT	0.0319
CGCTCACG	-0.0733
AAGTAGAT	0.111
ACGATGCG	-0.0979
ACTTCATC	-0.0336
GAAGGTAC	-0.0614
AGGTCGTG	-0.135
TCCCCAAA	0.205
CGATTGTC	0.00731
CAAAAGCC	-0.105
CTGATCGA	0.113
AATACAGC	0.0532
CCAGTGAA	0.0033
GACGCCTA	-0.192

Sequence	PBM E-score
CCGCGGCG	0.164
CAAGACCC	-0.0882
AAGACTCG	-0.213
CAGCGCAG	0.009
CACGCTGA	-0.128
CAATGATA	0.074
AAAGCCTT	-0.113
CTGCATAA	0.212
ATTCTTCG	-0.071
GAGGCCAC	-0.142
CGTGATAA	0.0396
AGTTCACC	-0.0938
GTTTGGTA	0.237
CCTCACAG	-0.0127
ATCCCTCG	0.15
AGGTAATA	0.136
GTGGCCCA	-0.178
AGGCCACA	-0.0447
GTAGCGTA	-0.158
CAAGACGA	-0.0851
ACGTTGAT	0.0985
CTGGCGGC	-0.0051
AGTGTGCA	-0.0995
CCGACCGG	0.0778
CGATGCAA	0.0367

Sequence	PBM E-score
ATGACATA	0.222
CATAGGTA	-0.127
ATTTGAGC	-0.0962
ACAGCCCA	-0.11
ATCGCTCA	-0.0285
ATTCGATG	-0.0197
ACCGAACT	0.002
CTGGTTTC	0.244
AGCACAAC	-0.06
AAGAACAC	0.0577
AAGGCTGA	-0.0789
AAATTGTG	0.00926
ACCTGACC	0.00259
AAAAACAC	0.233
GACCCCAC	0.0419
CAGTGCAC	0.00158
CTCTTATA	0.267
AGATGCAG	0.0178
AATTATCT	0.0433
ATACTTTG	0.116
GGTCGTGA	-0.166
GAGAACCC	-0.225
TCAATGGA	-0.0125
CTGTCTTC	-0.0969
CAAAGCAC	-0.0493

Sequence	PBM E-score
ACTTCGGG	-0.124
AAAGTCCC	-0.0967
GGGGATCA	-0.169
CGGCACGC	-0.0595
ACCTTGCT	-0.0405
ATATGGAT	0.0788
TAGCGGAA	0.013
ATCCACTG	0.00821
ACAGCTAG	-0.0833
CGTGGGAA	-0.152
GTATTAAC	0.132
AAAGTTCA	0.0924
ACTTTACG	0.0259
TGCCAAAA	0.145
GATAGAGC	-0.00952
AAGTAGAC	-0.0745
CCCGAATA	0.0626
AAATTATT	0.252
GCCGAACA	0.15
TTCAACAA	0.0977
CCAACTAG	-0.165
TGCTGTAA	0.00936
CATGGCAA	0.0424
AACCTGAA	0.171
ACACAGGG	-0.153

Sequence	PBM E-score
GGGCTTGA	-0.223
CCAATTGC	-0.14
GGCGATAA	0.101
CACATCCC	0.0949
ATGATGAA	0.108
GACATTAC	-0.0586
AGGCCGAA	-0.0014
TATCGCGA	0.146
ACCAACTG	-0.0131
AGATCGTC	-0.24
CTCTGGTA	-0.0543
AGCCGTGG	-0.0672
ACAAGGTG	-0.0938
GACGAGGA	-0.0777
AGAAGCAG	-0.053
CATAGTGG	-0.162
CACCGTCG	-0.0882
TGCATGAA	0.143
CCACTAAC	0.00893
ATTTACGG	0.192
GATACAAC	0.151
AGCAGATA	-0.086
CTTGCATA	-0.045
GACTCAAC	-0.0411
ATTTTGAA	0.176

Sequence	PBM E-score
AAGGGATT	-0.158
ACTGAGGA	-0.112
ACCCAGCG	-0.282
AAAGAGGT	0.0384
ACCACTAT	-0.108
CCATTTAC	0.12
ATTTAGCC	-0.0302
AAAATGGC	0.165
CGTCACCC	0.0725
CATAGCGA	-0.237
GTCCCTGA	-0.143
AGGTGGGG	0.153
CACAGTTC	-0.0233
CACTTTCG	0.0937
GAGATGGC	-0.0525
GTCCAGAA	0.0636
GCGGCGGA	0.144
ATGACTGG	-0.19
CCGTCCCG	-0.0167
GAGCTATC	-0.174
CCTTATGC	-0.0439
CTAGGAAA	-0.0731
TGCATTAA	0.134
TCTTACCA	-0.00575
AGGGACGA	-0.00547

Sequence	PBM E-score
CAAGTAGA	0.0983
CCGGCAAC	0.0592
CGGGCTAA	-0.151
ACCCCGAC	0.0306
AGTCGAGG	-0.12
TAATAGAA	0.248
ACTTACCA	0.014
CCTTGGGA	-0.111
ATATAGAA	0.179
GTAGACTA	-0.334
CTCAACTA	0.0428
AGGGTCAG	-0.197
AGACAGAC	0.165
AGCCTGGA	0.00174
AATCCCTA	-0.0809
AGGGCTAG	-0.206
ACTATCCT	-0.0072
GAACGAAC	-0.0437
AAAGTCCA	-0.00749
ACTTCCTG	0.0914
GAATCAAA	0.168
ATACTTAC	0.0534
